# Whole data set: some 33,000 sequences, median “E-score (-0.5 to 0.5)” near -0.017, cut for the highest 2% near 0.3. This is one part of the list.
# Biological target: T1, Sut1 (UniProt P53032)
# T1 sequence: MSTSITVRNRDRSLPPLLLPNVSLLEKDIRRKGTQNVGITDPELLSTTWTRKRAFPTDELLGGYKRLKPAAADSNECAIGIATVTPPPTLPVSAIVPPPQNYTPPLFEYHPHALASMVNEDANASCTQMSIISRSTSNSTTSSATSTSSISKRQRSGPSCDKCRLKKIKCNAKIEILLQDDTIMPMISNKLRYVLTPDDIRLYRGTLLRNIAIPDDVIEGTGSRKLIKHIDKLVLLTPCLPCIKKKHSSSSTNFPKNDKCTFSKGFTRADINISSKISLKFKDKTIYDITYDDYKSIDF
# Assay: PBM E-score (8-mer binding enrichment) (E-score (-0.5 to 0.5)); higher = stronger / more preferred TF binding; most listed sequences are background and not binding sites
# Settings: protein concentration: 200 nM; construct: GST-full length
# In short: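 Detection of bound protein used fluorescent anti-GST, with scans normalised by masliner. The proteins were GST-tagged yeast transcription factors applied at about 100-200 nM to universal all-10-mer Agilent arrays made double-stranded by primer extension. Each ungapped eight-base word, pooled with its reverse complement, was scored with an E-score from the Universal PBM Analysis Suite.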
row,Sequence,PBM E-score
1,CGTTGCCC,-0.267
2,CATGAACC,0.129
3,CACGTAGC,-0.304
4,ATACAAAC,0.298
5,ATAGGCCG,-0.146
6,CACAGGTC,-0.138
7,GTACTTAA,0.0179
8,AACCGCGT,0.0671
9,CTAGGAGA,-0.0821
10,CACGTTCG,0.0567
11,CGCGTGGA,-0.177
12,GTTAGGGA,-0.179
13,CGTGGCAG,-0.0671
14,ATAGTGGG,-0.0539
15,ACCACGCG,-0.113
16,ATGACGAC,-0.00927
17,GTCAACCA,-0.0656
18,CGTTTATC,0.171
19,ATCATCCC,0.0659
20,AACCAACA,0.131
21,CGTCATTA,0.0432
22,ACTAAACA,0.272
23,ACCCCCTG,-0.343
24,AGGTGAGC,-0.158
25,GCCTGACC,-0.0939

row,Sequence,PBM E-score
1,AGTGGTGC,-0.116
2,ACTCACGG,0.0805
3,CCGACGAA,0.164
4,CAGTAAGA,-0.0234
5,ACCGTGGA,-0.0245
6,AGTGACCG,-0.155
7,ACGTCTAG,0.0229
8,CCTGGCTC,-0.284
9,GCCTAGGC,-0.252
10,CCAACCGC,-0.0734
11,AAATCCCA,0.0824
12,TCCGCCCA,0.0508
13,GGTGGCTA,-0.182
14,TAGGTATA,0.0301
15,CCGTATTA,0.0499
16,GAATGGAC,-0.0938
17,AAATATGC,0.054
18,TTCTACAA,-0.00077
19,GTTGCAGA,-0.0396
20,TCCCTTAA,-0.0727
21,AAGATTAT,0.116
22,GATTATTA,0.229
23,AATTTAGA,0.23
24,TAATACAA,0.264
25,CCGGGTCC,-0.00864

row,Sequence,PBM E-score
1,CAATCGCA,0.0882
2,ACGACTCA,-0.0425
3,CGCCCACG,-0.242
4,CCGCTGTA,0.00817
5,GACGCATC,-0.0188
6,TTAATTAA,0.0737
7,ATGGGCCG,-0.12
8,GTCACTTA,0.0767
9,CATAGGCA,-0.11
10,CGCCTAGA,-0.0574
11,GGTCCTAA,0.0262
12,TCCCCGAA,0.228
13,GGGAAGTA,-0.124
14,ACGATTCC,0.0389
15,ATGGTGTC,-0.14
16,GTTATTGA,0.0899
17,ATGGTATC,0.0187
18,CAATGGGA,0.0704
19,GGATCTGA,-0.0985
20,ACCCTGAC,-0.275
21,ATTCGTCA,-0.0444
22,AGTGTGCG,-0.167
23,CCTTAGGC,-0.345
24,AGTATCTA,0.144
25,AATGTTCC,0.00585

row,Sequence,PBM E-score
1,GTTCACTA,0.0435
2,CAATTGCG,-0.00164
3,CCCGTCGG,-0.0797
4,GCCCCAAC,-0.0975
5,AGGTCATC,-0.118
6,CCCCTATC,-0.253
7,AGTCCGTA,0.445
8,GAAGAGCC,0.0782
9,ATATAGTG,0.23
10,ACTCGCAC,-0.131
11,ACCGCACG,-0.207
12,CTTTGCAC,0.0354
13,ACATAGCG,-0.0445
14,GCATCCTA,0.0211
15,CAGGAGAC,-0.17
16,ATCAACTG,0.0416
17,ACAGCCTA,0.0344
18,GCCGTTAA,0.092
19,AAGAGGTC,-0.0239
20,TGGCAAAA,0.109
21,CCTAAAAA,0.138
22,ATCCCAGG,-0.138
23,CCAGTTAC,-0.226
24,ACGAAGTG,-0.122
25,ACCAGACT,-0.139

row,Sequence,PBM E-score
1,ACAATTAT,0.276
2,ATTTGTGG,0.116
3,ATAAGCCG,-0.0653
4,GCGTTCAA,0.0494
5,CTTAAATC,0.146
6,TCAAGTAA,0.122
7,CTCGTTCA,-0.205
8,ATCCGGGG,0.256
9,TAAAACTA,0.257
10,AATTAACA,0.237
11,TGGCGACA,-0.207
12,CTATACGC,-0.0215
13,CTGCTTCC,-0.136
14,AGAAGTTC,-0.0438
15,CAGTCCCA,-0.315
16,CAACCTAG,-0.081
17,AGCCTGGG,-0.144
18,AATGCTCC,-0.0208
19,GTCGAAAA,0.149
20,ATAATGGC,0.0244
21,ACTGGCTG,-0.0504
22,ACAACTCC,0.431
23,GCGACTAC,-0.172
24,CCATGCAA,0.0211
25,AAAGCATT,0.0887

row,Sequence,PBM E-score
1,AACCCAGT,-0.032
2,CGATCTAA,0.0621
3,GGGGGACC,-0.421
4,CACTGCCA,-0.0425
5,AAGGTGTA,-0.0126
6,CAAATCCG,0.0586
7,CAATGGTC,0.00196
8,AGAATACG,-0.039
9,CACAACAG,-0.197
10,CTTGGTCC,0.122
11,AAGGGAAG,-0.076
12,AACCGGGA,-0.0112
13,CAGCAGGA,-0.211
14,GAACACAC,-0.0338
15,TCAGTGCA,-0.0982
16,AAAGGTTC,0.053
17,CCGGCAGA,-0.145
18,CGGCGATC,-0.0258
19,GCGCCGGA,0.196
20,ATCGAGCC,-0.218
21,CGGCCCCA,-0.4
22,GCTTAACA,0.133
23,CATGCATA,0.0165
24,TGAAGGCA,-0.128
25,CTCACATA,-0.0417

row,Sequence,PBM E-score
1,TAGTGGAA,-0.0866
2,TCGGTGCA,0.0194
3,AGAGACAG,-0.00546
4,GTGCAGAA,-0.116
5,AGATTAGC,0.0249
6,CTAGGATC,-0.16
7,ATTTGGAA,0.0805
8,TAATTCCA,0.129
9,CTTGCGAC,-0.165
10,AAGGTCAA,-0.0141
11,AACTCCAC,0.166
12,GCAGAGCA,-0.116
13,ATAGGGTA,0.19
14,GAGTCCTA,-0.0527
15,ACGCTTAT,-0.0903
16,GACCAGGC,-0.157
17,CAATAGTA,-0.0175
18,AAGTACTC,0.0904
19,GTTGTCCA,0.0464
20,GTTCGTAA,0.0781
21,AAATCCAG,0.081
22,AGAATGAT,0.165
